# From PubChem BioAssay AID1345083 (National Center for Advancing Translational Sciences (NCATS), 2018)
# The whole screen tested about 94,000 compounds, of which about 6,200 (6.6%) were called active. The shares of active, inactive and inconclusive entries below differ from those in the screen. Calls follow the shape of the dose curve; as a rule, active = well fitted inhibition curve with a large enough effect; inconclusive = small, poorly fitted or top-dose-only effect; inactive = flat fitted curve, though single readings scatter. Where the call is inconclusive, the potency comes from a doubtful curve fit.
# Assay: Cytotoxic Profiling in HEK 293 Cell Line of Diverse Libraries Using Quantitative High-Throughput Screening; also: nearly all actives have a fitted effect of over 60% in size
# Conditions: HEK 293 viability, ATP luminescence (CellTiter-Glo), 48-72 h; activity change, negative = cytotoxicity: at 115 µM (top of the series) unless noted; series mostly up to 115 µM
# Outline: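 Viability of HEK 293 cells, plated at 250 cells/well, was judged by cellular ATP after compound treatment for 48 or 72 hr. Luminescence was imaged 10 min after CellTiter-Glo addition at room temperature.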
# % is scaled to controls: 0 for no effect and ±100 for the full control effect; potency is read from the fitted curve at half-maximal effect; tags tell the direction and shape of the fitted curve.
SMILES,Potency,"activity change, negative = cytotoxicity",outcome
COC(=O)N1CCC(N2C(=O)c3c(c(C)nn3-c3ccccc3)C2C2CC2)C1 (stereo not given),"inconclusive: 56.2 µM [inhibitor, partial curve, poor fit]",–,–
O=C(c1ccc(F)cc1)N1CCC2(CC1)NC(=O)N(c1ccccc1Cl)N2,"inconclusive: 35.5 µM [inhibitor, partial curve]",–,–
COCc1nnc2n1CCC(NC(=O)c1cc(C3CC3)[nH]n1)CC2 (stereo not given),"inconclusive: 89.1 µM [inhibitor, single point]",–,–
CC(=O)N1CCN(C(=O)C2CCc3nnc(C4CCN([S+](=O)([O-])c5ccccc5Cl)CC4)n32)CC1 (stereo not given),–,inactive: -11.8%,–
Cc1cccc(CC(=O)N2CCC(c3noc(COCC4CC4)n3)CC2)c1,"inconclusive: 79.4 µM [inhibitor, partial curve, poor fit]",–,–
COCCN1C(=O)c2ccccc2C(C(=O)NCc2ccc(Cl)cc2)C12CCCC2 (stereo not given),"inconclusive: 28.2 µM [inhibitor, partial curve]",–,–
COCCn1cc(CN2CCN(c3cccc(OC)c3)CC2)ccc1=O,"inconclusive: 79.4 µM [inhibitor, partial curve, poor fit]",–,–
Cc1nn(-c2ccc(C(C)C)cc2)c(C)c1[C@@H]1C=C[C@@H](NC(=O)NC(C)C)C1,active: 22.4 µM,–,–
COCC(=O)N1CCCC1c1nc(CCOc2ccc(F)cc2)no1 (stereo not given),–,inactive: 4.48%,–
Cc1nn2c(c1-c1ccccc1N1CCCC1)N(C(=O)C1CCOCC1)CCC2,active: 100 µM,–,–
CC1(c2ccccc2)N(Cc2ccccc2F)C(=O)OC12CCN(Cc1cccnc1N)CC2 (stereo not given),"inconclusive: 50.1 µM [inhibitor, partial curve, poor fit]",–,–
O=C(CN1C(=O)C(c2ccccc2)=NC12CCCC2)Nc1ccc(C(F)(F)F)cc1,active: 44.7 µM,–,–
COc1cc(OC)c(NC(=O)Cn2c(C)cc3nc4n(c(=O)c32)CCCCC4)cc1Cl,–,inactive: -13.8%,–
CC(Oc1cccc(Cl)c1)C(=O)N1CCN(c2cc(-c3cccs3)[nH]n2)CC1 (stereo not given),active: 35.5 µM,–,–
O=C(COc1ccc(F)cc1)N1CCC2(CC1)CN(C1CCC1)CC2CO (stereo not given),"inconclusive: 50.1 µM [inhibitor, partial curve, poor fit]",–,–
COc1cccc(-c2nc3cnccn3c2NCCC(=O)N2CCCC(C)C2)c1 (stereo not given),–,inactive: -10.1%,–
COc1cccc([S+](=O)([O-])N2CCC(N3C(=O)c4c(c(C)nn4-c4ccccc4)C3C)CC2)c1 (stereo not given),–,inactive: -24.7%,–
COc1ccc(Nc2ccnc(N3CCN(C(=O)c4cccc(OC)c4)CC3)n2)cc1,active: 15.8 µM,–,–
CNC(=O)c1cc(C)nc2onc(C3CCN([S+](=O)([O-])c4c(C)noc4C)CC3)c12,–,–,inactive
O=C(NC1CCCCC1)[C@@H]1C[C@@H](O)CN1C1CCN(C(=O)c2ccccc2)CC1,–,inactive: 4.78%,–
CC(=O)N1CC2(CCN(Cc3cscn3)CC2)CC1C(=O)O (stereo not given),–,–,inactive
Cc1nn(-c2ccccc2)c2c1C(C)N(C1CN(C(=O)c3ccccc3)C1)C2=O (stereo not given),"inconclusive: 89.1 µM [inhibitor, single point]",–,–

SMILES,Potency,"activity change, negative = cytotoxicity",outcome
Cc1nnc(-c2cc(C(=O)NCCc3ccccc3)ccn2)n1Cc1cccnc1,"inconclusive: 112 µM [inhibitor, partial curve, poor fit]",–,–
O=C(NC1CCN(C(=O)c2ccc(-c3cccs3)cc2)CC1)c1ccc(F)cc1,"inconclusive: 44.7 µM [inhibitor, partial curve, poor fit]",–,–
COc1cccc(N2CCN(C(=O)C3CCN(c4cnc5nccnc5c4)CC3)CC2)c1,"inconclusive: 50.1 µM [inhibitor, partial curve, poor fit]",–,–
CC(C)CN(Cc1cccnc1)C1CN(C(=O)NCc2ccccc2)C1,–,inactive: 0.452%,–
CNC(=O)[C@@H]1CN(C(=O)c2ccc3ccccc3n2)C[C@H]1COC,"inconclusive: 100 µM [inhibitor, partial curve, poor fit]",–,–
O=C(NCC1CN(C(=O)CCc2ccccc2)CC12CN(c1ccccc1)C2)c1ccccc1 (stereo not given),"inconclusive: 56.2 µM [inhibitor, partial curve, poor fit]",–,–
COc1ccc(-c2[nH]ncc2CN2CCn3nnc(CCC(=O)N4CCCC4)c3C2)cc1,–,inactive: -5.07%,–
COc1ccccc1-c1cc(N2CCOCC2=O)c2cncn2c1,–,inactive: -42.7% [at 172 µM],–
O=[S+]1([O-])NCC2(CCN(CC3CCNCC3)C2)Nc2ccccc21 (stereo not given),–,inactive: -1.69%,–
CCN1C(=O)C2CC3(CCN(Cc4cn[nH]c4-c4ccc(F)cc4)CC3)CN2C1=O (stereo not given),–,–,inactive
CCc1ccc(CN2CCCC3(Cc4ccccc4CNC3=O)C2)s1 (stereo not given),"inconclusive: 100 µM [inhibitor, single point]",–,–
Cc1ccc(-c2cccc(CN3CCCC3C(=O)NCc3cccc(F)c3)c2)cc1Cl (stereo not given),active: 44.7 µM,–,–
CC1(COc2cccnc2)COc2ccc(C(=O)N3CCN(c4ccccn4)CC3)cc2N1 (stereo not given),"inconclusive: 7.08 µM [inhibitor, full curve, poor fit]",–,–
Cc1ccc(-c2cn3c(n2)CO[C@@H](CNC(=O)C2CCCC2)C3)cc1,"inconclusive: 35.5 µM [inhibitor, partial curve, poor fit]",–,–
Cc1ccsc1-c1[nH]nc2ncc(-c3ccccc3O)nc12,"inconclusive: 56.2 µM [inhibitor, partial curve, poor fit]",–,–
Cc1ccc(-c2nc(C(=O)NCc3cccc(Br)c3)no2)cc1,"inconclusive: 50.1 µM [inhibitor, partial curve, poor fit]",–,–
O=C(NC1CCN(CCn2nc3n(c2=O)CCCC3)C1)c1ccncc1 (stereo not given),–,–,inactive
C=CCOC(=O)C1=C(C)N=C2SC=C(CC(=O)N3CCCC3)N2C1c1ccc(F)cc1 (stereo not given),"inconclusive: 44.7 µM [inhibitor, partial curve]",–,–
CC(=O)Nc1cccc(-c2cc(-c3c(C)noc3C)cc3c2C(=O)N(C)C3)c1,"inconclusive: 89.1 µM [inhibitor, partial curve, poor fit]",–,–
Cc1ccc(C2Cn3nnc(C(=O)N4CCC(C(=O)NC5CCc6ccccc65)CC4)c3CO2)cc1 (stereo not given),"inconclusive: 50.1 µM [inhibitor, partial curve, poor fit]",–,–
Cc1nn(-c2ccc(F)cc2)c(Oc2ccc(F)cc2F)c1CCC(=O)NCC1CCCO1 (stereo not given),"inconclusive: 89.1 µM [inhibitor, single point]",–,–
COc1ccc(CN2CCCC3(C2)C(=NC2CCCCC2)NC(=O)N3c2cccc(OC)c2)cc1 (stereo not given),"inconclusive: 50.1 µM [inhibitor, partial curve, poor fit]",–,–

SMILES,Potency,"activity change, negative = cytotoxicity",outcome
COCCNC(=O)CCC1CCN(C(=O)c2ccccc2Cl)CC1,–,inactive: -0.581%,–
Cc1c(-c2ccc(F)cc2)[nH]c2ccc(CNC(=O)CN3CCOC3=O)cc12,"inconclusive: 39.8 µM [inhibitor, partial curve, poor fit]",–,–
CC(C)(C)c1ccc(-c2cc(C[C@H]3CNCC[C@H]3CC(=O)N3CCC(Cc4ccccc4)CC3)no2)cc1,–,inactive: -8.98%,–
COC[C@H]1NC(=O)CC[C@H]1C(=O)NC1CCN(Cc2ccccc2)CC1,"inconclusive: 89.1 µM [inhibitor, single point]",–,–
CC(=O)N1CCc2ccc(C(=O)NC3CCCCCC3)cc21,"inconclusive: 44.7 µM [inhibitor, partial curve, poor fit]",–,–
COc1ccc(C(=O)N2CCc3nc(C4CC4)nc(-c4ccc(O)cc4)c3CC2)cc1,–,inactive: -25.9%,–
COc1cc(C(=O)NC2CCCN(c3cc(-c4ccc(F)cc4)[nH]n3)C2)cc(OC)c1OC (stereo not given),"inconclusive: 7.08 µM [inhibitor, partial curve, poor fit]",–,–
CSc1ccc(-c2cccc(C(=O)NCC(=O)N(C)C)c2)cc1,"inconclusive: 31.6 µM [inhibitor, partial curve, poor fit]",–,–
O=C(c1coc(COc2ccc(F)cc2Cl)n1)N1CCCCO1,"inconclusive: 56.2 µM [inhibitor, partial curve, poor fit]",–,–
O=C1CC(c2ccccc2)N(C(=O)C2CC2)CCCN(C(=O)c2ccncc2)CCN1 (stereo not given),–,inactive: -9.94%,–
COc1ccc(C2Cn3cnc(C(=O)N4CCC(C(=O)Nc5ccc(F)c(C)c5)CC4)c3CO2)cc1 (stereo not given),–,inactive: 3.92%,–
CN(C)C(=O)c1cccnc1OC1CCN(S(=O)(=O)c2ccc3c(c2)CCCC3)C1 (stereo not given),"inconclusive: 39.8 µM [inhibitor, full curve, poor fit]",–,–
COc1ccc2c(c1)c(CN1CCc3nc(N4CCN(C)CC4)[nH]c(=O)c3CC1)cn2C,"inconclusive: 79.4 µM [inhibitor, single point]",–,–
Cc1ccc(NC(=O)N2CCCCC2c2noc(COc3ccc(F)cc3)n2)cc1F (stereo not given),active: 44.7 µM,–,–
COc1ccc(-c2ccc(C(=O)N3CCCCC3)cc2)nn1,"inconclusive: 35.5 µM [inhibitor, partial curve, poor fit]",–,–
COc1ccc(S(=O)(=O)N2CCCN(C)c3ccccc32)cc1Cl,"inconclusive: 50.1 µM [inhibitor, partial curve, poor fit]",–,–
FC(F)(F)c1ccc(CN2CCn3c(nnc3-c3ccccc3)C2)cc1,active: 89.1 µM,–,–
N[C@H]1CN(c2cncc(C(=O)N3CCCCC3)n2)C[C@@H]1C1CC1,–,inactive: 1.53%,–
O=C1Nc2ccccc2C12CN(Cc1ccc(C(F)(F)F)cc1)C2,"inconclusive: 100 µM [inhibitor, partial curve, poor fit]",–,–
O=c1c2c(CO)c(-c3ccc(F)cc3)nn2ccn1Cc1ccc(OC(F)(F)F)cc1,"inconclusive: 17.8 µM [inhibitor, partial curve, poor fit]",–,–
Cc1cc(NC(=O)c2ccc3c(c2)N(C)C2CCCCN2C3=O)ccc1Cl (stereo not given),"inconclusive: 17.8 µM [inhibitor, full curve, poor fit]",–,–
